Laboratory results published in ChEMBL document CHEMBL1201862, “PubChem BioAssay data set” (2004).
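Protocol summary: plate cells (96-well), add compound at 5 concentrations, incubate 48 h, interpolate endpoints linearly. Here, GI50 denotes the concentration required for 50% inhibition of growth.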 Calls of active or inactive are those of the source. Rule as the data show it: active = GI50 up to about 1.1 µM and inactive = higher.

Legend:
Experiment in all cases: NCI tumour cell line growth inhibition, 48 h
OVCAR-4 = system: OVCAR-4
HCT-116 = system: HCT-116
SK-MEL-2 = system: SK-MEL-2
K562 = system: K562
SNB-78 = system: SNB-78
KM-20L2 = system: KM-20L2
TK-10 = system: TK-10
HOP-18 = system: HOP-18
OVCAR-5 = system: OVCAR-5
CCRF-CEM = system: CCRF-CEM
DMS-273 = system: DMS-273
RXF 631 = system: RXF 631
HL-60 = system: HL-60
RPMI-8226 = system: RPMI-8226
LXFL 529 = system: LXFL 529
XF498 = system: XF498
UO-31 = system: UO-31
SNB-75 = system: SNB-75
EKVX = system: EKVX
HOP-92 = system: HOP-92
NCI-H522 = system: NCI-H522
OVCAR-3 = system: OVCAR-3
SR = system: SR
MOLT-4 = system: MOLT-4
DLD-1 = system: DLD-1

## CCCCOC(=O)Oc1cc2c(c(OC)c1OC)-c1ccc(SC)c(=O)cc1[C@@H](NC(C)=O)CC2
OVCAR-4
  GI50: inactive: 1220 nM
HCT-116
  GI50: active: < 10 nM
SK-MEL-2
  GI50: active: < 10 nM
K562
  GI50: active: < 10 nM
SNB-78
  GI50: active: < 10 nM
KM-20L2
  GI50: active: < 10 nM
TK-10
  GI50: inactive: 20000 nM
HOP-18
  GI50: inactive: 17700 nM
OVCAR-5
  GI50: active: 578 nM
CCRF-CEM
  GI50: active: < 10 nM
DMS-273
  GI50: active: < 10 nM
RXF 631
  GI50: active: 13.2 nM
HL-60
  GI50: active: < 10 nM
RPMI-8226
  GI50: active: < 10 nM
LXFL 529
  GI50: active: < 10 nM
XF498
  GI50: active: < 10 nM
UO-31
  GI50: active: 661 nM
SNB-75
  GI50: active: < 10 nM
EKVX
  GI50: inactive: 84900 nM
HOP-92
  GI50: active: < 10 nM
NCI-H522
  GI50: active: < 10 nM
OVCAR-3
  GI50: active: < 10 nM
SR
  GI50: active: < 10 nM
MOLT-4
  GI50: active: < 10 nM
DLD-1
  GI50: active: < 10 nM
